# Assay results from PubChem BioAssay AID485294 (National Center for Advancing Translational Sciences (NCATS), 2010).
# Hit rate of the full screen: of about 370,000 compounds, about 150 (0.041%) were called active. This list was built around the results that the source calls inconclusive (neither active nor inactive); the mix of calls is not that of the screen. Calls come from the whole dose curve; as a rule, active = well fitted inhibition curve with a large enough effect; inconclusive = small, poorly fitted or top-dose-only effect; inactive = flat fitted curve, though single readings scatter. No potency is given beside an inconclusive call; the fits are too rough.
# Target: Beta-lactamase (Escherichia coli (strain K12)) (UniProt P00811)
# Test: qHTS Inhibitors of AmpC Beta-Lactamase (assay with detergent); note: nearly all actives have a fitted effect of over 25% in size
# Conditions: AmpC hydrolysis of nitrocefin, absorbance 480 nm, 0.01% Triton; series mostly up to 114 µM
# How it was run: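 20 mM phosphate pH 7.0 + 0.01% (detergent screen) or 0.0001% Triton X-100; 5.3 nM AmpC reagent; cpd preinc 15 min RT; nitrocefin (800 uM stock) to start; A480 q20 s × 4 min; Activity was normalised to no-enzyme and no-compound control wells.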
# Potency is the fitted concentration of half-maximal effect; tags give direction and shape of the fitted curve.
# Chain of UniProt P00811 (P00811 whole entry, looked up): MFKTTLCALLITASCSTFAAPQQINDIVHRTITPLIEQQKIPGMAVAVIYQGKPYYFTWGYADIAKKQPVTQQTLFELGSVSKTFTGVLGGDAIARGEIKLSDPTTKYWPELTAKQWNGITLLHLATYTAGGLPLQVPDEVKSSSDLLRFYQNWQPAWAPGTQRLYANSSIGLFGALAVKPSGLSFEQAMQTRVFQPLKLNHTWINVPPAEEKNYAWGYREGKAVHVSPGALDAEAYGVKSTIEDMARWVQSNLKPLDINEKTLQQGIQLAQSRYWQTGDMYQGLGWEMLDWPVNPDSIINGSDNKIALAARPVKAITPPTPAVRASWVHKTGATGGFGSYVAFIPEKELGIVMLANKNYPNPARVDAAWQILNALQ
row,Structure (SMILES),Potency
1,COc1cccc(C2=NN(S(C)(=O)=O)C(c3cn(-c4ccccc4)nc3-c3cccs3)C2)c1 (configuration not stated),inactive
2,CCN1C(=NCC(C)C)N[C@@H](c2cccc(F)c2)C(C(=O)OC)=C1C,"inconclusive [inhibitor, full curve]"
3,O=C(Nc1cccc(C(=O)O)c1)/C(=C\c1ccco1)NC(=O)c1ccc(Br)o1,inactive
4,CCSc1nnc([C@H](Cc2ccccc2)NC(=O)OC(C)(C)C)o1,inactive
5,COc1ccc(NC(=O)c2ccc(Cl)c(S(=O)(=O)NCC3CCCO3)c2)c(OC)c1 (configuration not stated),"inconclusive [inhibitor, full curve]"
6,CC(=O)C1=C(C)NC(SCC(N)=O)=C(C#N)C1CC(C)C (configuration not stated),"inconclusive [inhibitor, single point]"
7,C=CCn1c(SCC(=O)Nc2cc(C)ccc2OC)nnc1-c1ccco1,"inconclusive [inhibitor, full curve]"
8,COc1ccc(CCNC(=S)NCCc2ccc(OC)c(OC)c2)cc1OC,inactive
9,O=C(Nc1ccccc1Cl)c1cc(S(=O)(=O)N2CCCC(C(=O)O)C2)ccc1F (configuration not stated),inactive
10,CCSCC1COC(c2cccn2Cc2ccc(C)cc2)=N1 (configuration not stated),"inconclusive [inhibitor, full curve, poor fit]"
11,COC(=O)c1cccc(NC(=O)CSCc2ccccc2)c1,"inconclusive [inhibitor, full curve, poor fit]"
12,CC1CCN(S(=O)(=O)c2nnc(NC(=O)COc3ccccc3F)s2)CC1,"inconclusive [inhibitor, full curve, poor fit]"
13,COc1ccc(C(C(=O)NC2CCCC2)N(C(=O)c2snc(-c3ccc(F)cc3)c2N)c2ccccc2)cc1 (configuration not stated),"inconclusive [inhibitor, full curve, poor fit]"
14,CCCCn1c(N)c(N(CCOC)C(=O)c2ccc(S(=O)(=O)N3CCC(C)CC3)cc2)c(=O)[nH]c1=O,"inconclusive [inhibitor, full curve]"
15,CCn1c(-c2ccc([N+](=O)[O-])cc2)n[nH]c1=S,"inconclusive [inhibitor, partial curve, poor fit]"
16,COc1ccc(CNC(=O)CSCc2ccccc2Cl)cc1,inactive
17,c1ccc(-n2nnnc2N2CCOCC2)cc1,"inconclusive [inhibitor, full curve]"
18,O=C(c1ccccc1)c1ccc2nc(N3CCN(c4ccc(F)cc4)CC3)c3nncn3c2c1,inactive
19,COc1ccc(CCC(=O)N2C[C@H]3C[C@@H](C2)c2cccc(=O)n2C3)cc1,"inconclusive [inhibitor, full curve]"
20,COc1ccc([N+](=O)[O-])cc1NC(=O)C(C)OC(=O)c1ccccc1C(=O)c1ccc(Cl)cc1 (configuration not stated),"inconclusive [inhibitor, partial curve]"
21,COc1ccccc1-c1cc(C(=O)N/N=C/c2ccc(C)s2)c2ccccc2n1,"inconclusive [inhibitor, partial curve]"
22,COC(=O)CN(c1ccc(C(C)C)cc1)S(=O)(=O)c1c(C)[nH]c(=O)[nH]c1=O,"inconclusive [inhibitor, full curve, poor fit]"
23,O=C(CN1C(=O)COc2ccc(Cl)cc21)Nc1ccc2c(c1)OCCO2,"inconclusive [inhibitor, single point]"

row,Structure (SMILES),Potency
1,O=C1COc2ccc(C(=O)COC(=O)Cc3ccc(F)cc3)cc2N1,"inconclusive [inhibitor, full curve, poor fit]"
2,Cc1cc(C)nc(SCc2cccc(C(=O)O)c2)n1,"inconclusive [inhibitor, single point]"
3,O=C1CSC(c2ccccn2)N1Cc1cn2ccccc2n1 (configuration not stated),"inconclusive [inhibitor, full curve, poor fit]"
4,c1ccc(-n2ncc(-c3nn[nH]n3)n2)cc1,"inconclusive [inhibitor, full curve, poor fit]"
5,COc1ccc(-n2nc(C(=O)NCC(=O)N(C)Cc3ccccc3)c3ccccc3c2=O)c(OC)c1,"inconclusive [inhibitor, full curve, poor fit]"
6,CC12CC3CC(C)(C1)CC(C(=O)NC1=NCCS1)(C3)C2,inactive
7,COc1cc(OC)c(NC(=O)C(C)n2nc(-c3ccc(C)cc3)c3c(c2=O)CCCC3)cc1Cl (configuration not stated),inactive
8,O=C(CCCn1c(=O)[nH]c2ccsc2c1=O)N1CCN(c2ccc(Cl)cc2)CC1,inactive
9,COc1cc(NC(=O)Cn2c([N+](=O)[O-])cnc2C)c(OC)cc1Cl,"inconclusive [inhibitor, partial curve]"
10,Cc1cccc(NC(=O)NCCN2CCCCC2)c1,"inconclusive [inhibitor, single point]"
11,c1ccn2cc(CSC3=NCCS3)nc2c1,"inconclusive [inhibitor, full curve, poor fit]"
12,CCOC(=O)C1(c2ccccc2)CCN(CC(=O)Nc2cccc3ccccc23)CC1,"inconclusive [inhibitor, full curve, poor fit]"
13,CCCCn1c(N)c(N(CC(C)C)C(=O)c2ccc(OCc3c(C)noc3C)cc2)c(=O)[nH]c1=O,"inconclusive [inhibitor, full curve, poor fit]"
14,COc1ccc(NC(=O)c2cn(C)c(=O)c3cc(OC)c(OC)cc23)cc1OC,"inconclusive [inhibitor, single point]"
15,COc1cc(NC(=O)c2ccccc2)c(OC)cc1NC(=O)Cc1ccccc1,"inconclusive [inhibitor, full curve]"
16,O=C(NCCc1c[nH]c2ccccc12)c1cc(Cl)c2c(c1)OCO2,inactive
17,COc1ccc(N2CCN(C(=O)c3ccc4c(c3)NC(=O)C(CSCc3c(F)cccc3Cl)N4)CC2)cc1 (configuration not stated),"inconclusive [inhibitor, partial curve]"
18,C#CCOCCOCCOCCNc1nc(N2CCN(C(=O)Cn3cc(CCCCN)nn3)CC2)nc(N2CCN(C(=O)[C@H](C)n3cc(CCCN=C(N)N)nn3)CC2)n1,"inconclusive [inhibitor, partial curve, poor fit]"
19,COc1cccc(CN2CCN(Cc3ccc(C)o3)CC2CCO)c1 (configuration not stated),inactive
20,CC(CC1CC(C)(C)OC1=O)C(=O)Nc1ccc([N+](=O)[O-])cc1 (configuration not stated),"inconclusive [inhibitor, full curve, poor fit]"
21,CC(C)CNC(=O)C1CCN(S(=O)(=O)c2ccc3c(c2)OCCO3)CC1,"inconclusive [inhibitor, full curve, poor fit]"
22,CCCc1nnc(NC(=O)CCC(=O)N2CCN(Cc3ccc(C)cc3C)CC2)s1,"inconclusive [inhibitor, full curve, poor fit]"
23,CCc1ccc(C(=O)Nc2cccc(-c3nc4cc(C(C)C)ccc4o3)c2)cc1,inactive

row,Structure (SMILES),Potency
1,Cc1ccc(S(=O)(=O)N(CC(=O)NCCC2=CCCCC2)Cc2ccccc2F)cc1,"inconclusive [inhibitor, full curve, poor fit]"
2,CCn1c(C)nc2cc(C(N)=O)ccc21,"inconclusive [inhibitor, single point]"
3,Cc1ccc(-c2nc(CNC(=O)NC3CCCCC3)c(C)o2)cc1,inactive
4,NNc1nc(-c2ccccc2Cl)c2cc(Br)ccc2n1,"inconclusive [inhibitor, full curve, poor fit]"
5,CNCC(=O)O,"inconclusive [inhibitor, partial curve, poor fit]"
6,COc1ccc(CNc2nc(-c3ccco3)nn2C(=O)c2ccccc2C)cc1,inactive
7,Cn1c(-c2cc(Br)ccc2O)n[nH]c1=S,"inconclusive [inhibitor, full curve, poor fit]"
8,Cc1cc(C)c2c(n1)nn1c(N3CCN(Cc4ccccc4)CC3)cc(C)nc21,"inconclusive [inhibitor, partial curve, poor fit]"
9,O=C(Cc1ccc(Cl)cc1)NCC(=O)N1CCCC1,"inconclusive [inhibitor, partial curve]"
10,Cc1nc(Nc2ccc(F)cc2)nc(Nc2ccc(F)cc2)c1[N+](=O)[O-],"inconclusive [inhibitor, full curve, poor fit]"
11,CC1=C(C(=O)OCC(C)C)C(c2cccc(F)c2)N2C(=O)C(C)SC2=N1 (configuration not stated),"inconclusive [inhibitor, full curve, poor fit]"
12,CCOC(=O)c1c(C)c(C(=O)NC2CCCCCC2)c(C)n1C,"inconclusive [inhibitor, full curve]"
13,O=C1CN(S(=O)(=O)c2cc(Cl)ccc2Cl)c2ccccc2N1,inactive
14,CC1CCCN(S(=O)(=O)c2cc(C(=O)NCCc3ccccc3)n(C)c2)C1 (configuration not stated),"inconclusive [inhibitor, single point]"
15,COCCCOc1ccnc(CS(=O)c2nc3ccccc3[nH]2)c1C (configuration not stated),"inconclusive [inhibitor, full curve, poor fit]"
16,CN(C)C(=O)c1ccc2c3c(cccc13)CC2,inactive
17,Cc1ccc(NC(=S)N(C)Cc2cn(C)c3ccccc23)cc1,inactive
18,O=C(CSc1nc2[nH]c(=O)cc(O)c2s1)NCCc1ccccc1,inactive
19,CN(C)CCNC(=O)c1cc2ccccc2oc1=O,inactive
20,CCN(CC(=O)NCCC1=CCCCC1)S(=O)(=O)c1ccccc1,inactive
21,Cc1ccc(-c2nnc(/C=C/c3ccccc3)o2)cc1,"inconclusive [inhibitor, full curve]"
